Measured values reported in PMC7045587.
Entries with a single value are a further part of the results.

Test: Michaelis-Menten kinetics, 60 °C, pH 4
Conditions: glycan gained, control: wild type

B1: CTendo45: G63T (protein)
parent chain: MHLSQLALPLLLAAGAHAQGAQGTGRTTRYWDCCKPSCAWPGKSNALQPVQTCNAQDQPLNDGGNTRSGCDSGGSAFMCSNQSPWALNETLSYGWAAVRIAGQSEFNWCCACYELTFTSGPVAGKKMIVQATNTGGDLGSNHFDIAIPGGGVGIFNACTQQYGAPPNGWGERYGGIRSRSECDSFPEALKAGCYWRFDWFLGADNPDVSFKQVACPAAITAKSKCVRQRDVIDQTPTGPEIVPTWTP
enzymatic_activity, kcat_Km (CMC-Na substrate): decreases, 35.68 ± 0.97 vs 62.06 ± 1.25
enzymatic_activity, kcat_Km (β-d-glucan substrate): no change, 140.39 ± 1.64 vs 138.46 ± 2.07
